# This is one part of the list. These are noisy estimates, calculated here from bound and input reads.
# Molecular target: T1, Pho4 (S. cerevisiae) (UniProt P07270)
# T1 sequence: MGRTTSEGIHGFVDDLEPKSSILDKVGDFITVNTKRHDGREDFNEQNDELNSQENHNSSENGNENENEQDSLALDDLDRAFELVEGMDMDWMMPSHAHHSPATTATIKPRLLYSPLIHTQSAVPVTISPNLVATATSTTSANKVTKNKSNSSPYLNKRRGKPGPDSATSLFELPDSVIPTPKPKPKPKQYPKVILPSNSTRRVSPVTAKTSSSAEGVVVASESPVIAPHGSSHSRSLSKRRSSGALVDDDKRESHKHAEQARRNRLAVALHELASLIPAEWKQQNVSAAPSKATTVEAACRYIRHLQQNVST
# Assay: relative binding free energy (BET-seq); higher = weaker binding
# Conditions: reference: library average
row,Sequence,relative binding free energy
1,GATGGCACGTGGGGAG,-0.1 kcal/mol
2,CGTAGCACGTGGAGTT,-0.09 kcal/mol
3,GCGGACACGTGGGTAG,-0.09 kcal/mol
4,TCATGCACGTGGTGAT,-0.1 kcal/mol
5,GGGGGCACGTGGCTAG,-0.18 kcal/mol
6,ATGTTCACGTGGAAGC,0.33 kcal/mol
7,TGATTCACGTGGGAAT,0.23 kcal/mol
8,TTGTACACGTGCGTGC,-0.07 kcal/mol
9,GGTTCCACGTGGATGG,0.2 kcal/mol
10,TCGTTCACGTGATTTT,0.36 kcal/mol
11,AAGTGCACGTGTGGTG,-0.1 kcal/mol
12,TGTTTCACGTGGGTTT,0.19 kcal/mol
13,TGAAGCACGTGCGTAT,-0.08 kcal/mol
14,ATGAACACGTGGAGGT,0.08 kcal/mol
15,TTAGTCACGTGGGGCT,-0.07 kcal/mol
16,GGTCCCACGTGGAGGG,-0.1 kcal/mol
17,TCGGGCACGTGGAGGT,-0.05 kcal/mol
18,TTTGGCACGTGGCGTA,-0.1 kcal/mol
19,TTGTTCACGTGCAGGC,0.22 kcal/mol
20,GGGTGCACGTGTCCTG,0.01 kcal/mol
21,TGATGCACGTGTCTTT,0.02 kcal/mol
22,AAAAGCACGTGGGCGG,-0.24 kcal/mol
23,GTATACACGTGGTAAT,0.1 kcal/mol
24,GAGAGCACGTGTGTTT,0.09 kcal/mol
25,TATTTCACGTGAAATG,0.29 kcal/mol
26,GTTGCCACGTGATGCG,0.09 kcal/mol

row,Sequence,relative binding free energy
1,TTGTACACGTGAGCGG,0.42 kcal/mol
2,ATAAACACGTGTGAGG,0.07 kcal/mol
3,CTGTGCACGTGAAAGG,0.17 kcal/mol
4,TTCTGCACGTGGGGGA,0.01 kcal/mol
5,GTGCCCACGTGGGGTT,-0.16 kcal/mol
6,ATGGGCACGTGTGCGT,-0.04 kcal/mol
7,TTTGGCACGTGCTTTA,-0.11 kcal/mol
8,TTTGACACGTGTGGCA,0 kcal/mol
9,TGGTACACGTGTTACG,0.15 kcal/mol
10,TTTATCACGTGGCATT,-0.01 kcal/mol
11,GGGAACACGTGGTGCT,-0.05 kcal/mol
12,TTAGGCACGTGATGCG,-0.17 kcal/mol
13,TAATTCACGTGGTGGC,0.15 kcal/mol
14,AGTGACACGTGGTTGC,0 kcal/mol
15,TCTAGCACGTGTGATA,0.21 kcal/mol
16,TCGGTCACGTGTTGAG,0.18 kcal/mol
17,GGGTTCACGTGATGCG,0.28 kcal/mol
18,ATGAGCACGTGAGATT,0.19 kcal/mol
19,GCCGGCACGTGGGGTA,-0.23 kcal/mol
20,GATGGCACGTGTGGCG,0 kcal/mol
21,ATTTTCACGTGGTCCT,0.2 kcal/mol
22,TGTGCCACGTGATTAT,-0.01 kcal/mol
23,ATGGTCACGTGTAGGG,0.19 kcal/mol
24,CTATGCACGTGGGCTT,-0.14 kcal/mol
25,CGTAGCACGTGTGTTC,0.04 kcal/mol
26,TGAGGCACGTGAACGG,0.08 kcal/mol

row,Sequence,relative binding free energy
1,GGTCTCACGTGTAGGT,0.23 kcal/mol
2,GTAGTCACGTGGTGGG,0.1 kcal/mol
3,GTGGCCACGTGGTTTT,-0.03 kcal/mol
4,ATCCGCACGTGTGGGG,-0.14 kcal/mol
5,GGGAACACGTGTTGGC,0.17 kcal/mol
6,TGCCGCACGTGTAGGG,-0.02 kcal/mol
7,AGTTACACGTGGTTCG,0.03 kcal/mol
8,CTGCACACGTGGGGTG,-0.18 kcal/mol
9,TAGATCACGTGTTTAA,0.08 kcal/mol
10,CAGTACACGTGGTTTA,0.1 kcal/mol
11,TTTTACACGTGGATAG,0.19 kcal/mol
12,TATTTCACGTGAATAG,0.22 kcal/mol
13,CGGTGCACGTGGGCGG,-0.31 kcal/mol
14,GGCTACACGTGTGAGG,0.21 kcal/mol
15,GTGCTCACGTGGGGGA,0.17 kcal/mol
16,TTTAACACGTGAAATG,0.26 kcal/mol
17,CTTCACACGTGTGGTT,0.23 kcal/mol
18,TATAGCACGTGTTAGA,-0.07 kcal/mol
19,ATCTGCACGTGGTTAG,-0.18 kcal/mol
20,GAGGGCACGTGTGATG,0.05 kcal/mol
21,TAAATCACGTGGTGTA,-0.07 kcal/mol
22,TTCATCACGTGGGTTC,0.09 kcal/mol
23,GTCGGCACGTGTTAAT,0.15 kcal/mol
24,ACTGGCACGTGTTTTA,-0.18 kcal/mol
25,TCTTGCACGTGAGTGC,0.3 kcal/mol
26,TTAAGCACGTGTTGAC,-0.01 kcal/mol

row,Sequence,relative binding free energy
1,CTTATCACGTGGTTTG,0.05 kcal/mol
2,TGTGTCACGTGCTAGG,0.04 kcal/mol
3,TCGCTCACGTGTGGGG,0.12 kcal/mol
4,TGATACACGTGGATCG,0.17 kcal/mol
5,TTAATCACGTGGGAGT,0.1 kcal/mol
6,GTATTCACGTGGCGGT,0.23 kcal/mol
7,TAAGCCACGTGGTGTA,-0.18 kcal/mol
8,TCATTCACGTGTGAGG,0.44 kcal/mol
9,AATATCACGTGCGGGT,0.09 kcal/mol
10,TCTATCACGTGAGGTA,0.29 kcal/mol
11,AAGTTCACGTGAGTAT,0.22 kcal/mol
12,AGAGGCACGTGGGAGT,-0.24 kcal/mol
13,GATGGCACGTGGGGTA,-0.19 kcal/mol
14,ATGACCACGTGGTGTT,-0.07 kcal/mol
15,TTTTCCACGTGAAAGT,0.36 kcal/mol
16,TTTATCACGTGCGTGT,0.12 kcal/mol
17,AAGACCACGTGGGGTT,-0.12 kcal/mol
18,TGGCGCACGTGGTCGG,-0.31 kcal/mol
19,GTGGTCACGTGGTTTG,0.16 kcal/mol
20,TGCTGCACGTGATGGA,0.09 kcal/mol
21,GTTTCCACGTGGTGGT,0.05 kcal/mol
22,CTGTGCACGTGTTTGA,0.04 kcal/mol
23,GTTTACACGTGGTTAT,0.1 kcal/mol
24,AAGTCCACGTGTTTTT,0.15 kcal/mol
25,TGTCACACGTGTGCAG,0.14 kcal/mol
26,CTTGTCACGTGTGGAG,0.12 kcal/mol

row,Sequence,relative binding free energy
1,TATGTCACGTGGGTCT,-0.09 kcal/mol
2,GTCATCACGTGGGTAG,0.02 kcal/mol
3,GTAAGCACGTGTAGGT,0.05 kcal/mol
4,AACGACACGTGGTGTG,0.07 kcal/mol
5,TGAGACACGTGCGGGG,-0.19 kcal/mol
6,TTTAGCACGTGCTTTG,-0.15 kcal/mol
7,TGTACCACGTGGGTCG,-0.22 kcal/mol
8,TATGGCACGTGCGAGG,-0.14 kcal/mol
9,AGTGACACGTGGCCGG,-0.11 kcal/mol
10,CTGTTCACGTGAGTTT,0.35 kcal/mol
11,GCGGGCACGTGCCGGG,-0.32 kcal/mol
12,GAAAGCACGTGCGGTG,0.05 kcal/mol
13,AGTGGCACGTGTCTGC,-0.16 kcal/mol
14,TGAGGCACGTGTCGAT,0.02 kcal/mol
15,ATTGTCACGTGACGAG,0.26 kcal/mol
16,TTACTCACGTGAGGGA,0.36 kcal/mol
17,GGTATCACGTGCGGCG,0.08 kcal/mol
18,GGGAGCACGTGGATGA,0.05 kcal/mol
19,GGGAGCACGTGTCAGT,-0.15 kcal/mol
20,CAGGTCACGTGATGCG,0.25 kcal/mol
21,TGCGCCACGTGATTGG,0.08 kcal/mol
22,TGAATCACGTGGTTAA,0.13 kcal/mol
23,GATGGCACGTGAGCTG,0.27 kcal/mol
24,TATGGCACGTGCGCGT,-0.33 kcal/mol
25,TTTAACACGTGTTTGT,-0.05 kcal/mol
26,TGGAGCACGTGATTTG,0.08 kcal/mol

row,Sequence,relative binding free energy
1,TTCTTCACGTGTGGTC,0.3 kcal/mol
2,AGTGACACGTGTGGGC,0.08 kcal/mol
3,GTGCCCACGTGTGGTG,-0.12 kcal/mol
4,TGTTCCACGTGTTGGA,0.09 kcal/mol
5,CTAGTCACGTGGCTGT,0.06 kcal/mol
6,GGCGGCACGTGGTGGA,-0.02 kcal/mol
7,CTTTCCACGTGGGGTG,0.02 kcal/mol
8,TAGATCACGTGGCAGG,0.06 kcal/mol
9,TATTGCACGTGTGGCA,0.04 kcal/mol
10,TGGGACACGTGCAGTA,-0.03 kcal/mol
11,TGAATCACGTGGTAAT,0.17 kcal/mol
12,GTTTGCACGTGGTGCC,-0.1 kcal/mol
13,TTAAGCACGTGGGGGC,-0.21 kcal/mol
14,TCGTTCACGTGGGGGC,0.16 kcal/mol
15,TGTGACACGTGCTTAG,-0.13 kcal/mol
16,CAGGTCACGTGGGAGG,0.07 kcal/mol
17,CTGATCACGTGTTTTA,0.08 kcal/mol
18,ATTAACACGTGGAGCT,0.07 kcal/mol
19,GTTGTCACGTGTGGAC,0.24 kcal/mol
20,ACTGTCACGTGGGATA,0.05 kcal/mol
21,TTGATCACGTGTTACT,0.13 kcal/mol
22,ATAGACACGTGGGGTC,-0.17 kcal/mol
23,TTTAGCACGTGCTTGT,-0.15 kcal/mol
24,AATTGCACGTGGGTCT,-0.11 kcal/mol
25,TTGGTCACGTGGGCGC,-0.04 kcal/mol
26,GCCGGCACGTGATGGG,0.06 kcal/mol

row,Sequence,relative binding free energy
1,ACTGTCACGTGGTGGT,0.03 kcal/mol
2,GTTCGCACGTGTGAAT,0.09 kcal/mol
3,ACGGGCACGTGAAGGG,0.17 kcal/mol
4,GTGCACACGTGCTGGT,-0.04 kcal/mol
5,GAAGTCACGTGGTGAA,0.17 kcal/mol
6,GCTGGCACGTGGGGTT,-0.18 kcal/mol
7,GGCATCACGTGGTTGT,0.09 kcal/mol
8,GTGTACACGTGGCTCG,0.1 kcal/mol
9,GGTTACACGTGTGTCT,0.23 kcal/mol
10,GGGAGCACGTGCGTGA,-0.05 kcal/mol
11,CTGTTCACGTGGTGCT,0.23 kcal/mol
12,ATGGGCACGTGATGCT,0 kcal/mol
13,GTCGACACGTGTGGGA,0.02 kcal/mol
14,GGCGTCACGTGCAGGT,0.25 kcal/mol
15,TGGGCCACGTGGAATG,0.05 kcal/mol
16,TGCTTCACGTGTTTAT,0.34 kcal/mol
17,GTTGGCACGTGAGTGA,0.11 kcal/mol
18,TCGATCACGTGAGGTG,0.29 kcal/mol
19,TATTACACGTGCGTTG,-0.07 kcal/mol
20,ATGAGCACGTGGTATA,-0.19 kcal/mol
21,TGTTTCACGTGTCAGT,0.24 kcal/mol
22,GATTTCACGTGTCTTA,0.42 kcal/mol
23,TTGGTCACGTGAAATG,0.35 kcal/mol
24,TGAGCCACGTGCGAGG,0 kcal/mol
25,GTGAACACGTGTGTTG,0.01 kcal/mol
26,TGTAACACGTGTCGGT,0 kcal/mol

row,Sequence,relative binding free energy
1,GTGGTCACGTGCTAGG,0.17 kcal/mol
2,GTTGTCACGTGATCGA,0.16 kcal/mol
3,GTTAACACGTGTGTGC,0.08 kcal/mol
4,TGTATCACGTGAATTT,0.35 kcal/mol
5,AGAGGCACGTGGCTGG,-0.16 kcal/mol
6,GTTATCACGTGTAACG,0.34 kcal/mol
7,GATGTCACGTGGTGGT,0.14 kcal/mol
8,TTGTACACGTGAGGCA,0.12 kcal/mol
9,GCGTACACGTGGTGGA,0.01 kcal/mol
10,ATGCGCACGTGTATGT,-0.08 kcal/mol
11,GTTTGCACGTGTCGGT,0.03 kcal/mol
12,GGGTACACGTGTGGGG,0.11 kcal/mol
13,TATTGCACGTGCGTGT,-0.09 kcal/mol
14,TGAATCACGTGGGAAG,0.04 kcal/mol
15,AGTCACACGTGGTCGG,-0.01 kcal/mol
16,ATGTACACGTGTAAAT,0.14 kcal/mol
17,GCCTGCACGTGTAGGG,0.05 kcal/mol
18,AATGCCACGTGGTAGG,-0.23 kcal/mol
19,TTAGTCACGTGCGTAA,0.01 kcal/mol
20,AGGTTCACGTGGTAAG,0.25 kcal/mol
21,TTAGACACGTGGCGTG,-0.24 kcal/mol
22,CGGGGCACGTGGGACA,-0.19 kcal/mol
23,GCGCGCACGTGGGGCG,-0.26 kcal/mol
24,GATTTCACGTGATATG,0.34 kcal/mol
25,TGTTTCACGTGGACTA,0.29 kcal/mol
26,GCATTCACGTGGGTTT,0.2 kcal/mol

row,Sequence,relative binding free energy
1,ATCTGCACGTGAGAGT,0.28 kcal/mol
2,TAGAGCACGTGTTTCG,-0.1 kcal/mol
3,ATCGGCACGTGATGGG,0.07 kcal/mol
4,TTCATCACGTGCTGGG,0.23 kcal/mol
5,TGTGCCACGTGAAAGT,0.1 kcal/mol
6,ACATTCACGTGGCGTG,0.22 kcal/mol
7,GGGAGCACGTGTTTGA,-0.09 kcal/mol
8,AATTGCACGTGCTGTG,-0.15 kcal/mol
9,GGGGTCACGTGCGGTG,0.13 kcal/mol
10,GGATTCACGTGGGGCC,0.17 kcal/mol
11,TTTGGCACGTGATTCG,-0.02 kcal/mol
12,AATTGCACGTGAATAG,0.28 kcal/mol
13,TTTCACACGTGCTTGG,0.18 kcal/mol
14,CTGTACACGTGGGGGG,0.01 kcal/mol
15,ATTAACACGTGGTAAA,0.03 kcal/mol
16,GGAGTCACGTGGAGGC,0.09 kcal/mol
17,GTTATCACGTGTGGCA,0.24 kcal/mol
18,GAAAGCACGTGTTTTT,0 kcal/mol
19,CAAGTCACGTGGGGTC,-0.06 kcal/mol
20,AATGGCACGTGCTTTA,-0.14 kcal/mol
21,GTTAGCACGTGCATGA,0.08 kcal/mol
22,GCGATCACGTGGGTAG,0.05 kcal/mol

# — the BET-seq Pho4 binding data (Le et al. 2018)
